# Assay results taken from paper PMC8017931.
# No constants are given. Whether binding was seen depends on the method and setting. In cells and extracts the contact can be indirect. Some binding calls cover weakened binding; strength is not graded here. For some of these results: Tags and fused reporters may be left off the sequences shown.
# T1: FLAG-tagged ARMC12 from Armc12-FLAG knock-in mice (mouse) (UniProt Q80X86)
# T1 sequence: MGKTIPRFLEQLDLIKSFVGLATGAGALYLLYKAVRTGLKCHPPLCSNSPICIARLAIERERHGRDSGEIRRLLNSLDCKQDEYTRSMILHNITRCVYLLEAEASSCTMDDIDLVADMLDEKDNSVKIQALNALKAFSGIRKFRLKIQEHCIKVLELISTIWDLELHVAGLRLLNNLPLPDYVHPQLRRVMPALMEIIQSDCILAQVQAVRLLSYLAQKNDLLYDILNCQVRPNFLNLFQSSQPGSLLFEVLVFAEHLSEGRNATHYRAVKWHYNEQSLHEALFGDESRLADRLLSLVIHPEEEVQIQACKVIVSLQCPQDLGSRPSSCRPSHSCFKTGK
# T2: FIS1 (endogenous, mouse testicular germ cells) (mouse (endogenous in testicular germ cells)) (UniProt Q9CQ92)
# T2 sequence: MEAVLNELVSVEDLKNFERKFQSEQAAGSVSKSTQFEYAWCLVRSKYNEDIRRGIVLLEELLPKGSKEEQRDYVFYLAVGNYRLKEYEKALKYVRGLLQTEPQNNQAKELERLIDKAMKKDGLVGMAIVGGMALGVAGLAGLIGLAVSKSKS
# T3: FLAG-tagged full length ARMC12 (armadillo repeat-containing 12) (mouse) (UniProt Q80X86)
# T3 sequence: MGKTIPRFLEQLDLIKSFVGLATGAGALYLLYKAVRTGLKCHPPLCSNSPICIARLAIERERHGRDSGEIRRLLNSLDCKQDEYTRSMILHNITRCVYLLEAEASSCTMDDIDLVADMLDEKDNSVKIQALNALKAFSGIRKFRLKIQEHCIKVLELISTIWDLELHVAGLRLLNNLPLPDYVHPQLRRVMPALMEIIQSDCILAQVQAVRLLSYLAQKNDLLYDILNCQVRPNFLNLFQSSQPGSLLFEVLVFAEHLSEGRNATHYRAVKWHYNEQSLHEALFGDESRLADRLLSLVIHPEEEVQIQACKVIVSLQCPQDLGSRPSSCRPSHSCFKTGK
# What was measured:
# [1] = target: T1, FLAG-tagged ARMC12 from Armc12-FLAG knock-in mice (mouse); assay: co-IP; lysates of testicular germ cells (TGC) from WT or FLAG-tagged Armc12 KI mice; immunoprecipitation with anti-FLAG antibody; Western blot
# [2] = target: T2, FIS1 (endogenous, mouse testicular germ cells) (mouse (endogenous in testicular germ cells)); assay: co-IP; lysates of WT or FLAG-tagged Armc12 KI mouse TGC; immunoprecipitation with anti-FIS1 antibody, IgG as negative control; Western blot with anti-TBC1D15 and TBC1D21 antibodies
# [3] = target: T3, FLAG-tagged full length ARMC12 (armadillo repeat-containing 12) (mouse); assay: co-IP; lysates of HEK293T cells transfected with FLAG-tagged ARMC12 (full length or truncated); immunoprecipitation with anti-FLAG antibody; immunoblot for the endogenous partner
binding [1],binding [2],binding [3],Binder
no binding,no binding,,"TBC1D15 (endogenous, mouse testicular germ cells) (protein, UniProt Q9CXF4 1-671) MAAAGVVSGKIIYEQEGVYIHSSCGKANDQDSLISGILRVLEKDAEVIVDWRPLDDALDSSSILCAGKDSSSVVEWTQAPKERAHRGSDQQSSYEAEWDMVTTVSFKKKPHTNGDAPGHRNGKSKWSFLFSLADLKSVKQSKEGMGWSYLVFCLKDDVMLPALHFHQGDSKLLIESLEKYVVLCESPQDSRTLLVNCQNKSLSQSFENLLDEPAYGLIQKIKKDPYTATMVGFSKVTNYIFDSLRGSDPSTHQRPPSEMADFLSDAIPGLKINQQEEPGFEVITRIDLGERPVVQRREPVSLEEWNKSLDPEGRLVAVESMKQKIFRGGLSHSLRKQAWKFLLGYFPWDSTKEERTQLQKQKTDEYFRMKLQWKSVSEAQEKRNSRLRDYRSLIEKDVNRTDRTNKFYEGQDNPGLILLHDILMTYCMYDFDLGYVQGMSDLLSPLLYVMENEVDAFWCFASYMDQMHQNFEEQMQGMKTQLIQLSTLLRLLDSGFCSYLESQDSGYLYFCFRWLLIRFKREFSFLDILRLWEVMWTELPCKNFHLLLCCAILESEKQQIMAKHYGFNEILKHINELSMKIDVEDILCKAEAISLQMAQCKELPQAVCEILGLQDSEITTPDSDTDENVGSPCPVSAFPSSTLPILAASEAKDDSPTQTLASPNACRLTPA"
binds,no binding,,"TBC1 domain family member 21 (TBC1D21) (protein, UniProt Q9D9D3 1-336) MTTLSPENSLSARRSATFILEKRNPPIDKAEWDSFFDENGHLAKSRDFICINILERGLHPFVRTEAWKFLTGYYSWQSSRDERLMVDSNRRRNYNSLCQMYEKIQPLLENLHGNFTETRNNIAYDIQRLYDKDPLGNVLIDKKKLEKTLLLSYVCNTKAEYQRGFHEMVMLFQLMVEHDHETFWLFQFFLQKTEHSCVINIGVGKNLDMLNSLITLLDPEFAEHLKGKGSGAVQSLFPWFCLCFQRAFKTFDDVWRLWEVLLTGKPCRNFQVLVAYSMLQMVREQALLECMSGDAILMACNNLIDLDADELISAACVVYSELMQKEVPQPLKEFLL"
binds,,,"GK2 (protein, UniProt Q9WU65 1-554) MAASKQTSAGPLVGAVVQGTNSTRFLVFNSKTAELVCSHQVELTQEYPKEGWVEQDPKEILKSVYECIAKACEKLAEVNIDISNIKAIGVSNQRETTVVWDKFTGDPLYNAVVWLDLRTQSTVETLTKKIPGNSNFVKSKTGLPLSTYFSAVKLRWMLDNLRPIQKAVEEGRAMFGTIDSWLIWCMTGGVNGGIHCTDVTNACRTMLFNIHSLEWDKDLCDFFEIPMSILPNVCSSSEIYGLMTSGALEGVPISGCLGDQSAALVGQMCFHEGQAKNTYGTGCFLLCNTGQKCVFSEHGLLTTLAYKLGKNKPVFYALEGSVAIAGAVIRWLRDNFEIITTSGEVENLAREVGTSYGCYFVPAFSGLYAPYWEPSARGIICGLTQFTNKCHIAFAALEAVCFQTREILDAMNRDCGIPLSHLQVDGGMTNNRILMQLQADILHIPVVKSVMPETTALGAAMAAGAAEGVNVWSLEPEDLSTILMERYEPQIQATESEIRFSTWKRAVMKSMGWVTAKDPENGDNPVFSCLPLGFFIVSSMTLLIGARCVSTAEE"
,,no binding,"OCIAD1 (endogenous, HEK293T) (protein, UniProt Q9NX40 1-245) MNGRADFREPNAEVPRPIPHIGPDYIPTEEERRVFAECNDESFWFRSVPLAATSMLITQGLISKGILSSHPKYGSIPKLILACIMGYFAGKLSYVKTCQEKFKKLENSPLGEALRSGQARRSSPPGHYYQKSKYDSSVSGQSSFVTSPAADNIEMLPHYEPIPFSSSMNESAPTGITDHIVQGPDPNLEESPKRKNITYEELRNKNRESYEVSLTQKTDPSVRPMHERVPKKEVKVNKYGDTWDE"
,,binds,"TBC1D15 (endogenous, HEK293T) (protein, UniProt Q8TC07 1-691) MAAAGVVSGKIIYEQEGVYIHSSCGKTNDQDGLISGILRVLEKDAEVIVDWRPLDDALDSSSILYARKDSSSVVEWTQAPKERGHRGSEHLNSYEAEWDMVNTVSFKRKPHTNGDAPSHRNGKSKWSFLFSLTDLKSIKQNKEGMGWSYLVFCLKDDVVLPALHFHQGDSKLLIESLEKYVVLCESPQDKRTLLVNCQNKSLSQSFENLLDEPAYGLIQAGLLDRRKLLWAIHHWKKIKKDPYTATMIGFSKVTNYIFDSLRGSDPSTHQRPPSEMADFLSDAIPGLKINQQEEPGFEVITRIDLGERPVVQRREPVSLEEWTKNIDSEGRILNVDNMKQMIFRGGLSHALRKQAWKFLLGYFPWDSTKEERTQLQKQKTDEYFRMKLQWKSISQEQEKRNSRLRDYRSLIEKDVNRTDRTNKFYEGQDNPGLILLHDILMTYCMYDFDLGYVQGMSDLLSPLLYVMENEVDAFWCFASYMDQMHQNFEEQMQGMKTQLIQLSTLLRLLDSGFCSYLESQDSGYLYFCFRWLLIRFKREFSFLDILRLWEVMWTELPCTNFHLLLCCAILESEKQQIMEKHYGFNEILKHINELSMKIDVEDILCKAEAISLQMVKCKELPQAVCEILGLQGSEVTTPDSDVGEDENVVMTPCPTSAFQSNALPTLSASGARNDSPTQIPVSSDVCRLTPA"
